Measured values taken from article PMC4336329 (PLoS ONE, 2015).
Among all 310,000 compounds or so, about 14,000 (4.5%) showed an effect of 50% or more. The effect is printed as a negative number. The list shows a part of the results.

What follows are compounds tested against human ether-à-go-go-related gene (hERG) potassium channel (human, UniProt Q12809) (assay: primary screen, population patch clamp on CHO cells stably expressing hERG).
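Also: peak tail current of the secondary pulse compared with the same well before compound.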

Chain of human ether-à-go-go-related gene (hERG) potassium channel (Q12809 whole entry, looked up): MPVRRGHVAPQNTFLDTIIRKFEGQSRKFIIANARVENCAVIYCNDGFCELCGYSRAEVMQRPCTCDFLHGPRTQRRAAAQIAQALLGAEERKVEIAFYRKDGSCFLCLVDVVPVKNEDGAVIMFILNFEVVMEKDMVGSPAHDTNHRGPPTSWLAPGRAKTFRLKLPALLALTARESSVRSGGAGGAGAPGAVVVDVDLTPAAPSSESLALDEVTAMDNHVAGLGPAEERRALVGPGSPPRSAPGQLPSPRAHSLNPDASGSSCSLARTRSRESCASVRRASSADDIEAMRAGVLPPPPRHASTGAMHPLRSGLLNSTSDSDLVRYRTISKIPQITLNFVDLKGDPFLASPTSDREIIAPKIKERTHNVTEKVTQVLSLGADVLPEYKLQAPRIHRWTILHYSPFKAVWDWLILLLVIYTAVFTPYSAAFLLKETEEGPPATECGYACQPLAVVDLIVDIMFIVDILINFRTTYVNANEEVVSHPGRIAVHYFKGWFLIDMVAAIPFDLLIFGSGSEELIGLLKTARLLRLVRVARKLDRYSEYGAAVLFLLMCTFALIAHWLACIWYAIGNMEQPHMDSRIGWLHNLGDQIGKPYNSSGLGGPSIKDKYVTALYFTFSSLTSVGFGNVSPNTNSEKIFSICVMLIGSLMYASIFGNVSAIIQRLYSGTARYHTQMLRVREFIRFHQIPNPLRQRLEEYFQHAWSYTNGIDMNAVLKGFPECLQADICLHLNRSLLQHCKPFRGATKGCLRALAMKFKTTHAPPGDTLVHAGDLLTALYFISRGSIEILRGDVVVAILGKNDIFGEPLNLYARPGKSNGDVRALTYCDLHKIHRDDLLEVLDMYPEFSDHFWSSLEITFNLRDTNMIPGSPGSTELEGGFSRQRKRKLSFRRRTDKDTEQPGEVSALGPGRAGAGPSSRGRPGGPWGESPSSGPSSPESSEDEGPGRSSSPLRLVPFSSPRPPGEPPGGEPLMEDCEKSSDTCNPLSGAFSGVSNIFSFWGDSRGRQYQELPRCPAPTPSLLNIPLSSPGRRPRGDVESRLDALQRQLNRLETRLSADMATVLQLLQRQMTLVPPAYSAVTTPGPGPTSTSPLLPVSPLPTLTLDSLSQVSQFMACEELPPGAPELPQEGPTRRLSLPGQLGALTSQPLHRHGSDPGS

SMILES	hERG current change (%, negative = inhibition) at 10uM
COC(=O)c1cccc(Nc2nc3ccccc3nc2C)c1	9.59%
Cc1cccc2cc(CN(CC3CCCO3)C(=O)c3ccco3)c(=O)[nH]c12 (centres unmarked)	-12.6%
COc1ccc(OC)c(NC(=O)c2ccc(OCC(=O)N3CCOCC3)c(OC)c2)c1	1.58%
O=C(NCCc1c[nH]c2ccccc12)c1cccc(Br)c1	0.989%
COc1ccc(S(=O)(=O)n2c([N+](=O)[O-])cnc2C)c(C)c1C	15.4%
CCN(CC)c1ccc(-c2nnc(SCC(=O)Nc3ccccc3C#N)n2-c2ccccc2)cc1	-8.06%
Cc1ccnc(-n2c(C)cc(/C=C3\C(=O)NC(=S)N(C)C3=O)c2C)c1	12.9%
O=C(CC(C(=O)O)N1CCOCC1)Nc1ccc(Cl)cc1 (centres unmarked)	-10.1%
COCCOC(=O)c1ccc(NC(=O)COc2ccc([N+](=O)[O-])cc2)cc1	-16.7%
COc1ccc(CCNC(=O)c2ccc(Cl)cc2)cc1OC	20.2%
CCC(C)N(C(=O)COC(=O)CSc1ccc(C)c(C)c1)C1CCS(=O)(=O)C1 (centres unmarked)	-18.9%
N#C/C(=C(/O)c1ccc([N+](=O)[O-])cc1)c1nc2ccccc2[nH]1	18.9%
COc1ccc(/C=N/NC(=O)c2cccc(NC(=O)c3ccc(Cl)cc3)c2)c(OC)c1	-11.6%
CC(=O)c1nn(-c2cccc(Br)c2)cc1C(=O)c1ccc(C)cc1	6.63%
CCCCS(=O)(=O)N1CCCC(C(=O)Nc2ccc3c(c2)CCC3)C1 (centres unmarked)	2.63%
CCC1(c2ccccc2)NC(=O)N(CC(=O)Nc2ccc(Cl)c(S(=O)(=O)N3CCCCC3)c2)C1=O (centres unmarked)	12.4%
C=C(Cl)COC(=O)C1C2C=CC(C2)C1C(=O)O (centres unmarked)	5.03%
COc1cccc(NC2c3ccccc3C(=O)N2Cc2ccco2)c1 (centres unmarked)	-17%
Cc1ccccc1NC(=S)NCc1ccc2[nH]c3c(c2c1)CCCC3	-5.47%
S=c1[nH]nc(-c2ccncc2)n1/N=C/c1cn(-c2ccccc2)nc1-c1ccc(Cl)cc1	-2.04%
O=C(CN1C(=O)c2ccccc2S1(=O)=O)NCCSc1ccccc1	-9.55%
Cn1cnnc1Sc1ccc(C(=O)OCC(=O)Nc2cc(Cl)cc(Cl)c2)cc1[N+](=O)[O-]	-8.26%
Cc1cccc(NNC(=O)C(=O)NNc2cccc(C)c2)c1	14%
